Measurements published in the supplement of paper PMC3724861.
The list shows a part of the results.

tested on: T1, Caupolican (Caup) homeodomain DNA-binding domain; experiment: PBM E-score (8-mer, recovered from the published 9-mer minima) (E-score (dimensionless, -0.5 to 0.5)); Drosophila protein; higher = stronger relative binding preference, active = 0.31 or more
T1 sequence: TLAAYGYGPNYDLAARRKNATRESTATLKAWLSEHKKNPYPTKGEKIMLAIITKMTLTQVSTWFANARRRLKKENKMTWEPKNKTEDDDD
Procedure, shortened: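 Caup's homeodomain DNA-binding domain (residues 214-303) was produced by in vitro transcription and translation and applied at 100 nM to custom-designed protein binding microarrays. Each value is an enrichment score giving relative binding preference for a short DNA word; higher means stronger. Published 9-mer scores were the minimum of their two constituent 8-mer scores, and the 8-mer values were recovered from those minima. A cutoff of 0.31 marks candidate binding sequences.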

| Sequence | PBM E-score |
| --- | --- |
| AAAAGTGT | inactive: 0.0517 |
| GGGACGTA | inactive: -0.0693 |
| ATACGTAT | inactive: 0.163 |
| ATCGGCGA | inactive: -0.13 |
| AACGATTA | inactive: 0.0353 |
| ATAGATTC | inactive: 0.1 |
| ACCCTGCA | ≥ -0.0187 |
| ATGGCACG | inactive: -0.0348 |
| CAACATGG | inactive: 0.295 |
| GCTCCCCA | inactive: -0.196 |
| CTTGGGCA | inactive: -0.151 |
| GCTCACCA | inactive: -0.117 |
| TGTAGCAA | inactive: 0.256 |
| AAGCTTCC | inactive: -0.133 |
| GGGCAGGA | ≥ -0.0697 |
| ATTATGTC | inactive: 0.227 |
| CTGTAGCC | inactive: -0.0118 |
| GAGACTGA | inactive: -0.071 |
| CTAACCTA | inactive: 0.0604 |
| GAATCGAC | inactive: -0.0357 |
| GCCCATAA | inactive: -0.093 |
| CGCTTACA | inactive: 0.18 |
| AATTACCA | inactive: 0.184 |
| GAGGTCGC | inactive: -0.133 |

| Sequence | PBM E-score |
| --- | --- |
| CGAGACTC | inactive: -0.0487 |
| GACCGGGC | inactive: -0.222 |
| AGTACCGG | inactive: 0.0483 |
| AGAATACC | inactive: 0.104 |
| CTAAGTAG | inactive: 0.117 |
| AACTCATT | inactive: -0.0317 |
| CATGCATG | inactive: 0.208 |
| AGTGGCCA | inactive: -0.0565 |
| TAGTTTAA | inactive: 0.218 |
| ACCGCCGT | inactive: -0.106 |
| GCGTAGCA | inactive: -0.115 |
| ATACGATC | inactive: 0.11 |
| ACAGCAAT | inactive: 0.163 |
| GAGCAGCA | inactive: -0.0274 |
| CCGTTCCC | inactive: -0.192 |
| AAAGAATC | inactive: -0.0189 |
| GATCTGCC | inactive: -0.00773 |
| AGTGTAGC | inactive: 0.0951 |
| GCCTGCAA | inactive: -0.129 |
| AAGGGGTG | inactive: -0.101 |
| ACTTCGAT | inactive: 0.0903 |
| CGCTACTC | inactive: -0.0891 |
| GTAGTCAC | inactive: 0.0427 |
| CTAGAGGA | ≥ 0.00587 |

| Sequence | PBM E-score |
| --- | --- |
| AGAGCTAG | inactive: -0.0656 |
| GAAAAGTA | inactive: 0.113 |
| GTAAATAC | inactive: 0.132 |
| AGTGAGCG | inactive: -0.0385 |
| AAGCAAGC | inactive: 0.00812 |
| GGAGTGCA | inactive: -0.0923 |
| TTGCGAAA | inactive: 0.07 |
| AAGTTTCC | inactive: 0.0498 |
| AATGTGCA | inactive: 0.193 |
| GAATGAGA | inactive: -0.0964 |
| AGCATGGG | inactive: -0.0663 |
| AGGATACG | inactive: 0.0709 |
| AGAAATAC | inactive: 0.0797 |
| GGAACATA | inactive: 0.271 |
| CTAACGGA | inactive: -0.0298 |
| CGATGTAG | inactive: 0.179 |
| CTTTCTTC | inactive: -0.0998 |
| CTGAAACA | inactive: 0.11 |
| AACACGGT | active: 0.351 |
| GAGGAGGC | inactive: -0.235 |
| AGCTAGCT | ≥ -0.0595 |
| AGTATTTA | inactive: 0.223 |
| GCGATGAA | inactive: -0.0305 |
| AGCTAGTA | inactive: 0.108 |

| Sequence | PBM E-score |
| --- | --- |
| CTTCAAAC | inactive: -0.0333 |
| GGACCACC | inactive: -0.0218 |
| GGCCCACA | inactive: -0.132 |
| CGAGTAAG | inactive: -0.00379 |
| CACGTGGC | inactive: -0.0843 |
| CCTGTTTA | inactive: 0.0657 |
| GACAATCA | inactive: 0.0975 |
| CTTAAACC | inactive: 0.00548 |
| ACATGCAA | active: 0.323 |
| ATCCGTAC | inactive: 0.0556 |
| AGGCGGTC | inactive: -0.116 |
| CCTCGCGA | inactive: -0.153 |
| CGATGAAC | inactive: -0.0351 |
| ACAAGTGG | inactive: 0.205 |
| CGGGATGC | inactive: -0.178 |
| CGTGATGC | inactive: -0.0697 |
| CCGACGGC | inactive: -0.16 |
| CTTGCGCA | inactive: -0.0025 |
| GTTACTCA | inactive: 0.119 |
| AGATCTTA | inactive: 0.018 |
| GCGCATTA | inactive: 0.0667 |
| AAAATGAA | inactive: 0.123 |
| ATCAAGCG | inactive: -0.0476 |
| CATTTCGC | inactive: -0.0461 |

| Sequence | PBM E-score |
| --- | --- |
| CTTTGCGC | inactive: -0.0457 |
| CCATTGGA | inactive: -0.0854 |
| GATGTGTA | inactive: 0.252 |
| CGACGGAC | inactive: 0.00364 |
| ACATGCGT | active: 0.346 |
| GCCACATA | inactive: 0.00811 |
| CGCTTACC | inactive: -0.0649 |
| GTTTGAAA | inactive: 0.0278 |
| ACAATGTG | inactive: 0.243 |
| CACCACCA | inactive: -0.0462 |
| AAATGCGG | inactive: -0.0652 |
| CCTTAACG | inactive: -0.15 |
| CAATACCG | inactive: -0.0912 |
| CGTGAGCA | inactive: -0.09 |
| GACAGTGC | inactive: 0.00178 |
| ACTTCTCA | inactive: 0.00621 |
| AGTGCGTA | inactive: 0.0147 |
| ACCACGTA | inactive: 0.0381 |
| GAAGGATC | inactive: -0.103 |
| CGAGGAAG | inactive: -0.171 |
| ATAGGCGG | ≥ -0.00984 |
| GGACAGAC | inactive: 0.0679 |
| CGCGACAC | inactive: 0.113 |
| ATTTTACC | inactive: 0.113 |

| Sequence | PBM E-score |
| --- | --- |
| CGCTTCCA | inactive: -0.152 |
| GTTTGGAA | inactive: 0.035 |
| GGAGCGCA | inactive: -0.327 |
| CAAGTTAC | inactive: 0.136 |
| CCTTTCAG | inactive: -0.106 |
| CCTTATGA | inactive: 0.0333 |
| AGCTTGAA | inactive: -0.0641 |
| GAACTAAA | inactive: 0.069 |
| TCAGACCA | inactive: -0.0205 |
| ACCATTTG | inactive: 0.112 |
| AAGATTTC | inactive: -0.0132 |
| ATCATCTG | inactive: 0.0263 |
| GAGGCGTA | inactive: -0.0868 |
| CGTGCTAG | inactive: -0.0186 |
| AGTAGCTG | inactive: 0.017 |
| AACTATAT | ≥ 0.202 |
| GCGATTAA | inactive: -0.0449 |
| CGTGTCAA | inactive: 0.282 |
| CAGTCCCG | inactive: -0.159 |
| AACCTACT | inactive: 0.0376 |
| CTCGGAGC | inactive: -0.149 |
| ACCCAGAG | inactive: -0.14 |
| CCCGCCAG | inactive: -0.179 |
